About 4,000 (1.1%) of roughly 380,000 compounds were called active. The inconclusive results got no clear call from the source; some entries with a clear call stand among them for comparison. The call rests on the fitted dose curve; in most records, active means well fitted activation curve with a large enough effect; inconclusive means small, poorly fitted or top-dose-only effect; inactive means no such curve, though single readings can be large or run the other way. Potencies beside an inconclusive call are fits to weak or partial responses and may not hold up.
assay: qHTS Assay to Identify Small Molecule Activators of BRCA1 Expression; settings: MCF7-BRCA1-FFLuc reporter, luminescence, 48 h; activation: at 46.1 µM (top of the series), scaled: vehicle 0%, 10 µM genistein 100% unless noted; further: nearly all actives have a fitted effect of over 80% in size
Method in brief: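 Activators of BRCA1 expression were detected as increased firefly luciferase luminescence in engineered MCF7 cells after 48 h compound incubation. Signals were scaled to genistein 10 microM as full activation.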
Potency means the concentration at half of the fitted maximal effect; tags describe the fitted curve by direction and shape.

| SMILES | activation | Potency |
| --- | --- | --- |
| CCOC(=O)c1sc(NC(=O)Nc2ccccc2Cl)cc1C | inconclusive: -83.7% [activator] | – |
| Oc1ccc(-c2nnc(SCC3CCCCC3)o2)cc1 | – | active: 6.31 µM |
| O=C(Nc1nccs1)c1cncc(Br)c1 | – | active: 3.55 µM |
| O=C(Nc1ccc(/C=C/c2nc3ccccc3o2)cc1)c1cccc(C(F)(F)F)c1 | – | inconclusive: 0.631 µM [activator, full curve, poor fit] |
| Nc1ncnc(Sc2ccccc2)c1[N+](=O)[O-] | – | inactive |
| Cc1cc(NC(=O)c2ccc3c(c2)OCO3)no1 | – | inconclusive: 1.26 µM [activator, full curve, poor fit] |
| CC(/C=C/c1ccccc1F)=N\NC(=O)C(C)C | – | inconclusive: 35.5 µM [activator, single point] |
| Fc1ccc(Nc2ccc(-c3ccc(F)cc3)nn2)cc1 | – | active: 5.62 µM |
| CSc1ccccc1OCc1cc(C(=O)N(C)Cc2ccc3nsnc3c2)no1 | – | inconclusive: 4.47 µM [activator, full curve, poor fit] |
| COc1ccc(C(=O)Nc2cc3c4c(c2)CC(=O)N4CCC3)c(OC)c1 | – | active: 3.98 µM |
| CN(c1nc(-c2ccccc2)cs1)C1CCS(=O)(=O)C1 (stereo not drawn) | – | inconclusive: 20 µM [activator, single point] |
| O=C(COc1ccccc1C(=O)Nc1ccccc1)Nc1ccc(Br)cc1 | – | inactive |
| CCc1nnc(NC(=O)c2cccs2)s1 | – | active: 12.6 µM |
| CN(C)c1ccc2c(c1)OC(N)=C(C#N)C2c1cccc(F)c1 (stereo not drawn) | inconclusive: -101% [activator] | – |
| Cc1ccc(-c2nc3ccsc3c(=O)o2)cc1 | – | active: 12.6 µM |
| CCC(C)[C@@H](NC(=O)OC(C)(C)C)c1nnc(S(=O)(=O)Cc2cccc(C)c2)o1 (stereo partly drawn) | – | inactive |
| CC(Sc1nnc(C(C)Oc2ccc(F)cc2)o1)C(=O)NCc1ccc2c(c1)OCO2 (stereo not drawn) | – | inactive |
| CN(C)c1ccc(C(O)Cc2nc3ccccc3n2C)cc1 (stereo not drawn) | – | inconclusive: 2.51 µM [activator, partial curve, poor fit] |
| Cc1nc(NC(=O)/C=C/c2ccccc2)sc1C(=O)N(C)C | – | inconclusive: 22.4 µM [activator, single point] |
| NC(N)=Nc1nc(C2COc3ccccc3O2)cs1 (stereo not drawn) | – | inconclusive: 0.501 µM [activator, full curve, poor fit] |
| Cn1c(=N)n(CC(=O)c2ccc(Br)s2)c2ccccc21 | – | inactive |
| CC1Cc2ccccc2N1C(=O)/C=C/c1cccc(F)c1 (stereo not drawn) | – | inconclusive: 1.41 µM [activator, full curve, poor fit] |
| Cc1cccc(N2CCN(C(=O)CSc3ccc4c(c3)OCCO4)CC2)c1C | – | inactive |
| COCCCNC(=S)NCCc1ccc(F)cc1 | – | inconclusive: 22.4 µM [activator, partial curve, poor fit] |

| SMILES | activation | Potency |
| --- | --- | --- |
| COc1ccc(OC)c(N/C(C)=C/C(=O)c2ccccc2)c1 | – | inconclusive: 7.94 µM [activator, partial curve, poor fit] |
| COc1ccc(-c2noc(-c3csc([C@@H]4C[C@H](O)[C@@H](CO)O4)n3)n2)cc1OC | – | active: 14.1 µM |
| Cc1nn(CCOc2ccccc2)c(=O)n1-c1ccccc1F | – | inconclusive: 8.91 µM [activator, partial curve, poor fit] |
| C=CCn1c(C)cc(C(=O)Cn2nc(C(=O)O)c3ccccc3c2=O)c1C | – | inconclusive: 22.4 µM [activator, single point] |
| O=C(Nc1nnc(CSCc2ccc(F)cc2)s1)c1cccc([N+](=O)[O-])c1 | – | inactive |
| COc1ccc(C(CNC(=O)C(C)(C)Oc2ccc(Cl)cc2)N2CCCCC2)cc1 (stereo not drawn) | – | inactive |
| Cc1cc(N2CCOCC2)nc(NCc2ccccc2)n1 | – | inactive |
| COc1ccc(C(C)=O)cc1Cn1c(C)c(C(=O)NCc2cccc(C)c2)sc1=O | – | inactive |
| O=C(COc1ccccc1)NCc1ccc2c(c1)OCO2 | – | inconclusive: 35.5 µM [activator, single point] |
| CCn1ccc(C(=O)Nc2ccc(Cl)cn2)n1 | – | active: 2.51 µM |
| Cc1ccc2c(c1)COc1c3ccc(C(=O)N4CCOCC4)cc3nn1-2 | – | active: 4.47 µM |
| CCc1ccc(C(=O)Nn2cnc3ccccc3c2=O)cc1 | – | inconclusive: 14.1 µM [activator, partial curve, poor fit] |
| Clc1ccc(-c2cn3c(n2)SCC3)cc1 | – | inconclusive: 1.12 µM [activator, full curve, poor fit] |
| O=C(NC(=O)c1ccc(Cl)cc1)OC1CCCCC1 | – | active: 12.6 µM |
| O=c1oc2ccccc2cc1-c1cn2cccnc2n1 | inconclusive: 132% [activator] [at 1.84 µM, scaled: vehicle 0%, 10 µM genistein 100%] | – |
| O=C(Nc1cccc(Cl)c1)NC1CCCCC1 | – | inconclusive: 10 µM [activator, partial curve, poor fit] |
| CC(=C/c1ccccc1)/C=N/NC(=O)c1cnccn1 | – | inconclusive: 2.82 µM [activator, full curve, poor fit] |
| O=C(CN1CCc2ccccc21)Nc1ccc2c(c1)OCCCO2 | – | inconclusive: 7.08 µM [activator, partial curve, poor fit] |
| Cc1ccc(-c2nc3cc(N)ccc3o2)cc1Br | inconclusive: 81.5% [activator] | – |
| COc1cc(C2C(C#N)=C(N)Oc3cc(N(C)C)ccc32)cc2c1OCO2 (stereo not drawn) | inconclusive: -118% [activator] | – |
| COc1ccc(Cl)c(CNC[C@H]2O[C@@H](n3cnc(C(N)=O)n3)[C@H](O)[C@@H]2O)c1 | inconclusive: 75.1% [activator] | – |
| O=c1[nH]c2ccccc2nc1/C=C/c1ccc(O)cc1 | – | inconclusive: 2 µM [activator, full curve, poor fit] |
| CCOC(=O)c1nnsc1Nc1ccc(C)c(C)c1 | – | inconclusive: 35.5 µM [activator, single point] |
| S=C(NNC(=S)Nc1ccccc1)Nc1ccccc1 | – | inconclusive: 10 µM [activator, partial curve, poor fit] |

From PubChem BioAssay AID624202 (National Center for Advancing Translational Sciences (NCATS), 2012)
